# Experimental data as given in PubChem BioAssay AID686978 (National Center for Advancing Translational Sciences (NCATS), 2013).
# Out of some 420,000 compounds screened, about 64,000 (15%) were called active. This list was built around the results that the source calls inconclusive (neither active nor inactive); the mix of calls is not that of the screen. The call rests on the fitted dose curve; in most records, active means well fitted inhibition curve with a large enough effect; inconclusive means small, poorly fitted or top-dose-only effect; inactive means flat fitted curve, though single readings scatter. No potency is given beside an inconclusive call; the fits are too rough.
# Assay: qHTS for Inhibitors of human tyrosyl-DNA phosphodiesterase 1 (TDP1): qHTS in cells in absence of CPT; further: nearly all actives have a fitted effect of over 55% in size
# Settings: DT40 Tdp1-/- hTDP1 cells, no CPT, ATP luminescence, 48 h; activity change, negative = growth inhibition: at 46.2 µM (top of the series)
# In short: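 Luminescent ATP content (CellTiter-Glo) served as the growth readout. Knockout chicken DT40 cells expressing human TDP1 were exposed to compounds without camptothecin for a minimum 48 hr at 37 °C.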
# On the % scale 0 is the no-effect control and ±100 the full control effect; potency means the concentration at half of the fitted maximal effect; tags describe the fitted curve by direction and shape.
Structure (SMILES),Potency,"activity change, negative = growth inhibition"
N#Cc1nc(N(c2ccccc2)c2ccccc2)nc(-n2cccc2)n1,active: 3.55 µM,
Cc1ccccc1NS(=O)(=O)c1nnc(NC(=O)c2ccccc2F)s1,,inconclusive: -31.1% [inhibitor]
Cc1cc(N2CCCCC2)nc(-c2ccc(Br)cc2)n1,"inconclusive [inhibitor, single point]",
CC(C)c1ccc(NC(=O)[C@@H](C)NC(=O)[C@@H]2Cc3ccccc3CN2)cc1,"inconclusive [inhibitor, partial curve]",
O=C1Nc2cc(Cl)c(Cl)cc2N(O)N1c1ccccc1Cl,,inactive: 2.71%
O=C(Nc1ccccc1)C1CC(=O)n2c(nc3ccccc32)N1 (stereo unspecified),"inconclusive [inhibitor, partial curve, poor fit]",
Oc1[nH]c2ccccc2c1/C=N/c1nccs1,"inconclusive [inhibitor, single point]",
COc1cc(C(=O)N2CCN(c3cccc(Cl)c3)CC2)ccc1OCC(=O)N1CCOCC1,"inconclusive [inhibitor, single point]",
COc1ccc(CCn2c(=O)c3cccnc3n(CC(=O)Nc3ccc(C)c(F)c3)c2=O)cc1OC,active: 20.6 µM,
O=C(NCCNC(=O)c1ccc(-c2cccc(Cl)c2)o1)c1cnccn1,"inconclusive [inhibitor, single point]",
Cc1ncc(CO)c(/C=N/NC(=O)c2ccoc2C)c1O,"inconclusive [inhibitor, single point]",
O=C(Nc1ccc2c(c1)Cc1ccccc1-2)c1ccncc1,"inconclusive [inhibitor, partial curve]",
CCOC(=O)[C@]12CCCC=C1N(Cc1ccc3c(c1)OCO3)C(=O)[C@H](CC(=O)NCc1cccc3ccccc13)C2,"inconclusive [inhibitor, single point]",
O=C1CCCS(=O)(=O)c2ccccc21,,inactive: 2.4%
Cc1ncc([N+](=O)[O-])n1Cc1ccccc1,,inactive: -13.6%
O=C(CSc1nn(-c2ccc(F)cc2)c(=S)s1)N1CCN(C(=O)c2ccco2)CC1,,inactive: -17.1%
CCOC(=O)N1CCC2CC1c1cc(Cl)ccc12 (stereo unspecified),"inconclusive [inhibitor, single point]",
COc1ccc(S(=O)(=O)Nc2cccc3c2O[C@H](CN(C)S(=O)(=O)c2cn(C)cn2)[C@@H](C)CN([C@H](C)CO)C3=O)cc1,,inactive: -10.3%
COc1ccc(CC(=O)NCc2csc(-c3cccs3)n2)cc1OC,"inconclusive [inhibitor, partial curve]",
CC(C)OP(=O)(OC(C)C)C(Nc1ccccn1)c1ccc(F)cc1 (stereo unspecified),"inconclusive [inhibitor, single point]",
O=C(Nc1ccccc1Cl)C(Cl)C(=O)c1ccccc1 (stereo unspecified),active: 13 µM,
COc1ccc(-c2nnc(SCC(=O)Nc3cccc(C(F)(F)F)c3)nc2-c2ccc(OC)cc2)cc1,active: 18.4 µM,
CCN(CC)CCCN=Cc1c(-c2ccccc2)[nH]n(-c2nc3ccccc3s2)c1=O,,inconclusive: -36.8% [inhibitor]

Structure (SMILES),Potency,"activity change, negative = growth inhibition"
CC(=O)Nc1cccc(C(=O)/C=C/c2ccc(C)cc2)c1,active: 10.3 µM,
Cc1ccc(-c2nc(CS(=O)(=O)CC(=O)N3CCc4ccccc4C3)c(C)o2)cc1,active: 20.6 µM,
Cc1cc(CNC(=S)Nc2cccc(Cl)c2Cl)nn1C,,inactive: -25.2%
CC1CCC2C(=O)N(c3ccc(NC4CCCCC4)c([N+](=O)[O-])c3)C(=O)C2C1 (stereo unspecified),"inconclusive [inhibitor, single point]",
Cc1ccc(C=Nc2ccccc2C(N)=O)s1,active: 3.66 µM,
CCOc1ccc(N2C(=O)Nc3ccc(Br)cc3C2(O)C(=O)NCCCN(C)C)cc1 (stereo unspecified),,inconclusive: 6.57% [inhibitor]
CC(C)C(=O)N1CCN(c2nc(-c3ccccc3)c3c(c2C#N)CC(C)(C)OC3)CC1,"inconclusive [inhibitor, partial curve, poor fit]",
O=C(NNC(=O)C1CCCO1)c1ccc(F)cc1 (stereo unspecified),,inactive: -21.3%
CCOC(=O)c1[nH]c2c(c1Cc1ccccc1C)C(=O)CC(c1cc(OC)ccc1OC)C2 (stereo unspecified),"inconclusive [inhibitor, single point]",
COc1ccccc1C(=O)Nn1c(C2CCC2)nc2ccccc2c1=O,"inconclusive [inhibitor, single point]",
CCc1nn2c(=O)cc(COc3ccc(/C=C(\C#N)C(=O)Nc4ccc(F)cc4)cc3OC)nc2s1,"inconclusive [inhibitor, single point]",
CC(C)COc1ccc(C(=O)Nc2cc3nn(-c4ccccc4)nc3cc2Cl)cc1,,inactive: -0.962%
O=C(Cc1csc(NC(=O)Nc2ccc(Cl)cc2)n1)NCc1cccnc1,"inconclusive [inhibitor, partial curve]",
Nc1nc(N2CCN(C/C=C/c3ccccc3)CC2)nc2ccccc12,"inconclusive [inhibitor, single point]",
CCCCOc1ccc(S(=O)(=O)NCc2csc(C)n2)cc1,active: 23.1 µM,
O=C(C1CC(=O)N(C2CCCC2)C1)N1CCC(Cc2ccccc2)CC1 (stereo unspecified),"inconclusive [inhibitor, partial curve]",
O=C1NC[C@H](CCCCN2C[C@H](Cc3ccc(O)cc3)N(CC3CCCCC3)C(=O)C2=O)N(CCc2ccc(O)cc2)C1=O,,inactive: -6.37%
Cc1ccccc1N/N=C/c1c(C)nc2ccccn12,"inconclusive [inhibitor, single point]",
Cc1ccnc(NC(=O)c2ccc(S(=O)(=O)N3CCCCCC3)cc2)c1,"inconclusive [inhibitor, partial curve]",
COc1cc(C(=O)Nc2ccc3nc(N4CCOCC4)sc3c2)cc(OC)c1OC,"inconclusive [inhibitor, single point]",
O=C1NN(CCO)C(=S)Nc2ccccc21,,inactive: -8.09%
O=C(c1ccc2c(c1)OCCO2)N(Cc1cccnc1)c1nc2c(Cl)cccc2s1,active: 23.1 µM,
COc1cccc(Cn2c(CNS(=O)(=O)c3ccc(F)c(Cl)c3)nc3cccnc32)c1,active: 10.3 µM,
